Laboratory results published in PubChem BioAssay AID485367 (National Center for Advancing Translational Sciences (NCATS), 2010).
The whole screen tested about 330,000 compounds, of which about 560 (0.17%) were called active. This list was built around the results that the source calls inconclusive (neither active nor inactive); the mix of calls is not that of the screen. The call rests on the fitted dose curve; in most records, active means well fitted inhibition curve with a large enough effect; inconclusive means small, poorly fitted or top-dose-only effect, or effect the other way; inactive means flat fitted curve, though single readings scatter. Potencies of inconclusive entries are left out as doubtful fits.
Further: nearly all actives have a fitted effect of over 60% in size.
Potency means the concentration at half of the fitted maximal effect; tags describe the fitted curve by direction and shape.
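Wherever activity, negative = inhibition is given: 0% = uninhibited 1x PFK enzyme wells and -100% = no-enzyme wells.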

What follows are compounds tested against ATP-dependent 6-phosphofructokinase (Trypanosoma brucei brucei) (UniProt O15648) (assay: qHTS Assay to Find Inhibitors of T. brucei phosphofructokinase). Settings: T. brucei PFK, ADP-Glo luminescence; activity, negative = inhibition: at 57.5 µM (top of the series).
Sequence of UniProt O15648 (O15648 whole entry, looked up): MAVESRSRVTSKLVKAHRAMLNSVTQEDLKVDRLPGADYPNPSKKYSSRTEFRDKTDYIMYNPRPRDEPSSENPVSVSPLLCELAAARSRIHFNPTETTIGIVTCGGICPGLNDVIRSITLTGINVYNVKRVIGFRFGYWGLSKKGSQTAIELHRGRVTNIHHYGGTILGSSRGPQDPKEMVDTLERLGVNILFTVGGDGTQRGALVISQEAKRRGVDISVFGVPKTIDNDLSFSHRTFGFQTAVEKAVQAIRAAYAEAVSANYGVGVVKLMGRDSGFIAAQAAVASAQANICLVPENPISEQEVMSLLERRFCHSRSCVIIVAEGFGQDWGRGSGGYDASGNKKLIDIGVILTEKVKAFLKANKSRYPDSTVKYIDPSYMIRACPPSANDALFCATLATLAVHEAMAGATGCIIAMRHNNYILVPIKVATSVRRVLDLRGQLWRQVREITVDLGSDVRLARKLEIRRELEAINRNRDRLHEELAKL
How it was run: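 PFK 1.25 nM, F6P 0.5 mM, ATP 0.1 mM, 0.1 M TEA pH 8.0, 5 mM MgCl2, 0.01% Tween20, 0.1% BSA; 45 min RT. ADP-Glo readout. qHTS titration up to 57 uM; curves fitted, compounds curve-classed.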
With `CCOC(=O)c1sc2nccc(N(C)C)c2c1N=CNOCc1c(F)cccc1Cl` the “activity, negative = inhibition” value was inactive: 4.92%. For `Cc1cccc(C(=O)N/N=C/c2ccoc2)c1`, the Potency was inconclusive [falling, partial curve]. In the case of `O=[N+]([O-])c1ccccc1SN(Cc1ccccc1)c1ccccn1`, the Potency is reported as inconclusive [activator, single point]. In the case of `Oc1cc(O)cc(/C=C/c2ccc(O)c(O)c2)c1`, the Potency is reported as active: 8.49 µM. For `CC1N(O)C(c2ccc(Cl)cc2Cl)N(O)C1(C)C` (centres undefined), the Potency was inconclusive [falling, full curve, poor fit]. `CCOc1ccc(NC(=O)C(CC)n2nc(C)c3c(C)n(-c4ccccc4)nc3c2=O)cc1` (centres undefined) was tested, and the Potency was inconclusive [activator, single point]. In the case of `O=[N+]([O-])c1ccc(NCCCNS(=O)(=O)c2ccccc2)c(Cl)c1`, the “activity, negative = inhibition” value is reported as inactive: 3.6%. With `CC(=O)c1c(C)[nH]c(C(=O)OCc2nnc(-c3ccccc3)o2)c1C` the Potency was inconclusive [activator, single point]. For `CCOC(=O)C1=C(CC)Nc2ccccc2N=C1NC(=O)Nc1ccc(Cl)c(Cl)c1`, the Potency was inconclusive [falling, partial curve]. In the case of `CN=c1c([N+](=O)[O-])nn(-c2ccc3c(c2)OCCO3)n1O`, the “activity, negative = inhibition” value is reported as inactive: -1.06%. For `COc1ccc(NC(=O)COC(=O)c2cc3c(s2)CCC3)cc1`, the Potency was inconclusive [falling, single point]. `O=S(=O)(c1ccccc1)N1CCN(Cc2ccccc2C(F)(F)F)CC1` was tested, and the “activity, negative = inhibition” value was inactive: -0.507%. In the case of `O=C(CCCN1C(=O)c2ccccc2C1=O)NCCC1=CCCCC1`, the “activity, negative = inhibition” value is reported as inactive: -1.21%. In the case of `CC1(C)Cc2ccccc2-c2n[nH]c(=S)n21`, the Potency is reported as inconclusive [falling, full curve, poor fit]. With `N#CC1=C(N)Oc2n[nH]c(-c3ccncc3)c2C1c1ccsc1` (centres undefined) the “activity, negative = inhibition” value was inactive: -2.36%. `Cc1noc(NS(=O)(=O)c2ccc(NC(=O)c3cc(=O)c4ccccc4o3)cc2)c1C` was tested, and the Potency was inconclusive [activator, partial curve]. With `Nc1nc(Nc2cccc(Cl)c2)nc(NCCO)c1[N+](=O)[O-]` the “activity, negative = inhibition” value was inactive: 0.24%. In the case of `CCOC(=O)N1CCN(S(=O)(=O)Cc2ccccc2)CC1`, the “activity, negative = inhibition” value is reported as inactive: 0.427%. For `NC(N)=NCc1cccc(I)c1`, the Potency was inconclusive [falling, single point]. `O=C(c1ccco1)N(CCC(c1ccccc1)c1ccco1)Cc1ccco1` (centres undefined) was tested, and the Potency was inconclusive [falling, partial curve]. For `COc1cc(/C=C2/C(=O)NN(c3ccc(C)c(Cl)c3)C2=O)cc([N+](=O)[O-])c1O`, the Potency was inconclusive [activator, single point]. For `COc1ccc(Cc2nnc(SCC(=O)NCc3ccco3)o2)cc1`, the Potency was inconclusive [falling, single point]. With `CC(C)c1nnc(SCC(=O)NC2CCCC2)n1C` the Potency was inconclusive [falling, full curve, poor fit]. `Cc1ccc(/C=C2/C(=O)N(c3ccccc3)C(=S)N2C)o1` was tested, and the Potency was inconclusive [falling, partial curve]. `Cc1ccc(C)n1-c1ccc(NC(=O)c2ccccc2)cc1` was tested, and the “activity, negative = inhibition” value was inactive: 0.157%. In the case of `O=C(CSc1ncnc2c1cnn2Cc1ccccc1)Nc1ccc2c(c1)OCCO2`, the Potency is reported as inconclusive [falling, single point]. With `COc1ccccc1C(=O)Nc1nc2ccccc2[nH]1` the Potency was inconclusive [falling, partial curve]. For `CCc1cc(=O)oc2cc(C)c(CN3CCCCC3)c(O)c12`, the Potency was inconclusive [falling, full curve]. In the case of `Cc1ccc(/C=C/C2=Cc3c(sc(NC(=O)CSc4n[nH]c(N)n4)c3C#N)C(C)(C)C2)o1`, the Potency is reported as inconclusive [falling, partial curve]. In the case of `CSC1=N/C(=C\C=C\c2cccs2)C(=O)S1`, the Potency is reported as inconclusive [falling, single point]. In the case of `CCOC(=O)N1CCC(N2C(=O)c3ccccc3C2Nc2cccnc2)CC1` (centres undefined), the “activity, negative = inhibition” value is reported as inactive: -6.49%. `COc1ccc(CCNC(=O)CN(C)S(=O)(=O)c2cccs2)cc1` was tested, and the Potency was inconclusive [falling, single point]. `COc1ccc2c(C)cc(SCC(=O)Nc3cc(C(N)=O)cc(C(N)=O)c3)nc2c1` was tested, and the Potency was inconclusive [activator, single point]. `O=C(CN1CCN(S(=O)(=O)c2ccc(F)cc2)CC1)Nc1ccc(Cl)c(C(F)(F)F)c1` was tested, and the Potency was inconclusive [falling, single point]. In the case of `CCc1ccccc1NC(=O)CSc1ccsc1[N+](=O)[O-]`, the Potency is reported as inconclusive [falling, partial curve]. With `Cc1nc2ccccc2c(=O)n1NC(=O)/C=C/c1ccccc1Cl` the Potency was inconclusive [activator, single point]. With `Cc1nc2nc(CSc3nc4ccccc4s3)cc(=O)n2[nH]1` the Potency was inconclusive [activator, partial curve, poor fit]. For `O=C(c1ccccc1)c1ccccc1N1C(=O)C=CC1=O`, the Potency was inconclusive [falling, single point]. `COC(=O)CC(c1ccc(OC)c(OC)c1)c1ccc(OC)c(OC)c1` was tested, and the “activity, negative = inhibition” value was inactive: -4.68%. In the case of `COc1ccc(/C=C2/C(=O)N(Cc3ccccc3)N=C2C)cc1`, the Potency is reported as inconclusive [falling, partial curve, poor fit]. In the case of `CCC1=NN(C(=O)Cc2ccc(OC)c(OC)c2)C(O)(C(F)(F)F)C1` (centres undefined), the Potency is reported as inconclusive [activator, single point]. With `CCOc1ccc(-c2onc(C(F)(F)F)c2-c2cscn2)c(O)c1` the “activity, negative = inhibition” value was inactive: -3.09%. With `Cc1cnc(C(=O)OCC(=O)N(Cc2ccccc2)C(C)C)cn1` the Potency was inconclusive [activator, single point]. `O=C(CCNS(=O)(=O)c1ccc(Cl)cc1)N1CCN(c2ccccn2)CC1` was tested, and the Potency was inconclusive [falling, single point]. With `COc1ccc(O)c(CN2CCN(C/C=C/c3ccccc3)CC2)c1` the “activity, negative = inhibition” value was inactive: 1.91%. With `O=C(Nc1ccc(Cl)cc1)OCc1cn(-c2ccc(Cl)cc2)nn1` the Potency was inconclusive [falling, single point]. `C#CCOCCOCCOCCNc1nc(N2CCN(C(=O)CCCCCCCCCCNC(=O)[C@H](CCCCN)n3cc(C[C@@H](C)CC)nn3)CC2)nc(N2CCN(C(=O)CCCCCCCCCCNC(=O)[C@H](CCCN=C(N)N)n3cc(C[C@@H](C)CC)nn3)CC2)n1` was tested, and the Potency was inconclusive [activator, single point]. With `N#C/C(=C\c1cc(O)c(O)c(O)c1)C(N)=O` the Potency was inconclusive [falling, single point]. `CCOc1ccccc1N1C(=O)CC(Sc2n[nH]c(-c3ccccc3)n2)C1=O` (centres undefined) was tested, and the “activity, negative = inhibition” value was inactive: 6.51%. With `CC1CCN(C(=O)/C(=C/c2ccccc2Cl)c2ccccc2)CC1` the “activity, negative = inhibition” value was inactive: -7.72%. For `CCOCCCNC(=S)Nc1ccc(S(N)(=O)=O)cc1`, the Potency was inconclusive [falling, single point]. In the case of `O=C(NCc1ccccn1)c1ccc(Cl)c(S(=O)(=O)Nc2ccccc2C(=O)NCc2ccccn2)c1`, the Potency is reported as inconclusive [falling, single point]. For `Cc1nc2ccccc2c(=O)n1/N=C/c1ccc(O)c(O)c1O`, the “activity, negative = inhibition” value was inactive: -12.5%. `O=C(CSc1nnnn1C1CC1)N1CCN(c2cccc(Cl)c2)CC1` was tested, and the Potency was inconclusive [falling, single point]. With `Cc1cc(C)c2nc(N(CCCN(C)C)C(=O)c3ccc(S(=O)(=O)N4CC(C)OC(C)C4)cc3)sc2c1` (centres undefined) the “activity, negative = inhibition” value was inactive: 19.9%. `Cc1cnc(C(=O)OCC(=O)c2csc(N3CCCCC3)n2)cn1` was tested, and the Potency was inconclusive [falling, single point]. For `Cc1ccc(OCC(=O)Nc2ccc(N3CCCC3)cc2)cc1C`, the Potency was inconclusive [activator, single point]. In the case of `CC(=O)CSc1nnc(Cc2ccc([N+](=O)[O-])cc2)o1`, the Potency is reported as inconclusive [falling, partial curve]. For `Cc1ccc(C(c2c(C)[nH][nH]c2=O)c2c(C)[nH][nH]c2=O)cc1`, the Potency was inconclusive [falling, partial curve]. With `Cc1ccc(-n2c(-c3nn(C)c(C)c3Cl)n[nH]c2=S)cc1` the “activity, negative = inhibition” value was inactive: 0.393%. `CS(=O)(=O)N(CC(=O)N/N=C/c1cccc2c1OCCO2)c1ccccc1Br` was tested, and the Potency was inconclusive [falling, single point]. In the case of `O=S(=O)([O-])CCC[n+]1c(SCCCS(=O)(=O)O)sc2ccc(Cl)cc21`, the Potency is reported as inconclusive [activator, partial curve]. `NC(=O)Cn1c(=O)n(Cc2ccco2)c(=O)c2c3c(sc21)CCCCC3` was tested, and the Potency was inconclusive [falling, single point]. With `COC(CNC(=S)Nc1ccc([N+](=O)[O-])cc1)OC` the Potency was inconclusive [falling, single point]. For `O=C(Cc1ccc(Cl)cc1)Nc1ccc(S(=O)(=O)Nc2ncccn2)cc1`, the Potency was active: 21.3 µM. With `Cc1ccc(C(=O)Nc2ccc(C(=O)OCc3cc(=O)n4ccsc4n3)cc2)cc1` the Potency was inconclusive [falling, full curve]. For `O=C1C2C(C(=O)N1/N=C/c1ccc(N3CCCCC3)o1)C1C=CC2C12CC2` (centres undefined), the “activity, negative = inhibition” value was inactive: -3.84%. `Nc1ncccc1OCc1cccc(C(F)(F)F)c1` was tested, and the Potency was inconclusive [falling, partial curve]. With `COC(=O)c1sccc1NC(=O)Nc1cc(OC)ccc1OC` the Potency was inconclusive [falling, single point].
